Results from PubChem BioAssay AID360 (National Center for Advancing Translational Sciences (NCATS), 2006).
Out of some 48,000 compounds screened, about 550 (1.1%) were called active. About 4% were inconclusive and are not listed. Cut-off read from the data, not from the text of the source: active = potency below about 15 µM; inconclusive = mostly about 16 µM to 33 µM; inactive = weaker than that. The list shows a part of the results.

Target: Lysosomal acid glucosylceramidase (Homo sapiens) (UniProt P04062)
UniProt P04062, sequence (P04062 whole entry, looked up): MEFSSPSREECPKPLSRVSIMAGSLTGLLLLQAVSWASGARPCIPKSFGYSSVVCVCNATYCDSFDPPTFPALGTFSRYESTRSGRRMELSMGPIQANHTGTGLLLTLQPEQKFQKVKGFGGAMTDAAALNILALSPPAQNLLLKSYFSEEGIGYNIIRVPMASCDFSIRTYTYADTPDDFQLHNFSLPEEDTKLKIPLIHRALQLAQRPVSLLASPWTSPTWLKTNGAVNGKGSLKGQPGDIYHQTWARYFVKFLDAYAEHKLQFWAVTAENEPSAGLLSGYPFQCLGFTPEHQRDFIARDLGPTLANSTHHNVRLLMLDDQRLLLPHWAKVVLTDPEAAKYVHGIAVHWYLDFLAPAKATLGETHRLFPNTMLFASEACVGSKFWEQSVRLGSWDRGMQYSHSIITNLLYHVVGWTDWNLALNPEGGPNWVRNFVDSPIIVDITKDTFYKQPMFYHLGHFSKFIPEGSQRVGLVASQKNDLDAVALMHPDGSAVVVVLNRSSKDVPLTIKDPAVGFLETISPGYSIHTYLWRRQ
Assay: Glucocerebrosidase;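 note: the screen sought inhibitors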
Details: purified enzyme, resorufin glucoside fluorescence (screen aimed at inhibitors), 20 min; series mostly up to 77 µM
In short: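 Wild-type enzyme at 0.2 nM final in 50mM citric acid/KH2PO4, 10mM sodium taurocholate, 0.01% tween-20, pH 5.9, with resorufin beta-D-glucopyranoside at 30 uM final. Compounds titrated, 20 min at RT, red fluorescence read; AC50 from titration.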
Potency is the fitted concentration of half-maximal effect.

Potency, inactive:
O=C(CSc1nnc(-c2ccc(Cl)cc2)o1)N1CCN(c2ccccc2)CC1 > 76.9 µM, Cn1c(SCC(=O)Nc2ccc3cn[nH]c3c2)nnc1-c1cccs1 > 76.9 µM, CCC(=O)n1nc(NCc2ccccc2OC)nc1NCc1ccccc1OC > 76.9 µM, CN1CC(=O)N(C)c2ncn(Cc3ccccc3)c2C1=O > 76.9 µM, O=C(NC1CC1)c1ccc(COc2ccc(F)cc2)o1 > 76.9 µM, CNC(=O)CSc1nnnn1CCCOC > 76.9 µM, Cc1cc(C)c2c(=O)[nH]c(SCC(=O)Nc3ccccc3)nc2n1 > 76.9 µM, CC(C)C(NC(=O)c1cccs1)C(=O)NC1=NCCS1 (stereo not drawn) > 76.9 µM, CC1(C)CC(NC(=O)CCc2ccccc2)CC(C)(C)N1 > 76.9 µM, COc1ccc(CN2CCCC(C(=O)N3CCCC3)C2)cc1 (stereo not drawn) > 76.9 µM, Cc1ccc(CNC(=O)CNS(=O)(=O)c2cccc3nsnc23)cc1 > 76.9 µM, CCCCOC(=O)CSc1nc2c(c(=O)[nH]c(=O)n2C)n1C/C=C(\C)Cl > 76.9 µM, COC(=O)C1=C(C)N=C2SCCC(=O)N2C1c1ccc(C(=O)OC)cc1 (stereo not drawn) > 76.9 µM, CCSc1nnc(NC(=O)c2csc3c2CCC(C)C3)s1 (stereo not drawn) > 76.9 µM, CC(Sc1nnc2ccccn12)C(=O)Nc1ccc(Cl)cn1 (stereo not drawn) > 76.9 µM, Cc1nc2ccccc2c(=O)n1CCCn1ccnc1 > 76.9 µM, Cc1ccc2[nH]c(=O)c(-c3noc(-c4ccncc4)n3)cc2c1 > 76.9 µM, CSc1nsc(SC)c1C(=O)N1CCN(S(=O)(=O)c2ccc(C)cc2)C1C (stereo not drawn) > 76.9 µM, COc1ccc(NC(=O)COc2ccccc2)c(OC)c1 > 76.9 µM, c1ccc2oc(NC3=NCN(CC4CCCO4)CN3)nc2c1 (stereo not drawn) > 76.9 µM, Cc1c(NC(=O)C(C)OC(=O)c2cc3c4ccccc4n(C)c3s2)c(=O)n(-c2ccccc2)n1C (stereo not drawn) > 76.9 µM, CC1Cc2cc(/C(O)=C3/C(=O)C(=O)N(CCCN(C)C)C3c3ccncc3)ccc2O1 (stereo not drawn) > 76.9 µM, COC(=O)c1cc(NCc2cccs2)ccc1N1CCOCC1 > 76.9 µM, CCOc1ccc(N(CC(=O)O)S(=O)(=O)c2ccc(F)cc2)cc1 > 76.9 µM, C=CCn1c(SCc2ccc(OC)cc2)nnc1-c1cccnc1 > 76.9 µM, CCN(CC(F)(F)C(F)F)S(=O)(=O)c1ccc(NC(=O)OC)cc1 > 76.9 µM, Cc1cc2c(c(=O)o1)C1(C(=O)N(C)c3ccccc31)C(C#N)=C(N)O2 (stereo not drawn) > 76.9 µM, OC(c1ccccc1)C1CN(Cc2ccccc2)CCC1(O)c1ccccc1 (stereo not drawn) > 76.9 µM, O=C(CCCC(=O)OCC(=O)NC1CCCC1)Nc1ccccn1 > 76.9 µM, CCCCNC(=O)c1sc(=S)n2c1[nH]c(=O)c1ccccc12 > 76.9 µM, CN1CCN(C2=NC3(CCCC3)C(C#N)C(=O)N2)CC1 (stereo not drawn) > 76.9 µM, CC1(C)C2CCC1(C)C(NC1=NCCC1)C2 (stereo not drawn) > 76.9 µM, CCc1cc(-c2[nH]ncc2-c2ccc3c(c2)OCO3)c(O)cc1O > 76.9 µM, O=C(C1CCCN(S(=O)(=O)c2ccc(Cl)cc2)C1)N(Cc1cccs1)C1CC1 (stereo not drawn) > 76.9 µM, CCOC(=O)c1c(-c2ccncc2)csc1N > 76.9 µM, CCOCc1nnc(NC(=O)CSc2ccccc2)s1 > 76.9 µM, Cc1cc(NC(=O)CCCOc2ccc(Cl)cc2Cl)no1 > 76.9 µM, CCCN(CCC)CCCNC(=O)c1ccc2c(c1)N(CC)C(=O)c1ccccc1S2=O (stereo not drawn) > 76.9 µM, NC(=O)C1(c2ccccc2)CCOCC1 > 76.9 µM, CC1CCCCN1Cc1nc2c(c(=O)n(C)c(=O)n2C)n1CCCc1ccccc1 (stereo not drawn) > 76.9 µM, COc1ccc(OC)c(NC(=O)CN(c2ccc(OC)c(Cl)c2)S(C)(=O)=O)c1 > 76.9 µM, Cc1noc(C)c1CSc1ccc2ccccc2n1 > 76.9 µM, Cc1ccccc1Cn1ccc(NC(=O)c2cnn3c(C(F)(F)F)cc(-c4ccco4)nc23)n1 > 76.9 µM, CCC(=O)OC1CSc2nc3ccccc3n2C1 (stereo not drawn) > 76.9 µM, Cc1ccc(S(=O)(=O)Nc2cc(C(=O)O)ccc2N2CCCCC2)cc1 > 76.9 µM, Cc1cc(C)n(-c2nc3ccccc3c(=O)n2OCC(=O)N(C)C)n1 > 76.9 µM, COc1ccccc1-n1c(SCC(=O)N2CCOCC2)nc(O)c(Cc2ccccc2)c1=O > 76.9 µM, N#Cc1c(NC(=O)CCn2cnc3ccccc3c2=O)oc(-c2ccccc2)c1-c1ccccc1 > 76.9 µM, COc1ccc(C)cc1S(=O)(=O)N1CCCCC1 > 76.9 µM, COc1ccc(CNc2ccc(S(N)(=O)=O)cc2)c(OC)c1OC > 76.9 µM, COc1ccccc1NC(=O)CN1CCN(c2ccccc2F)CC1 > 76.9 µM, Cc1onc(-c2ccccc2)c1C(=O)N1CCN(CCc2ccccc2)CC1 > 76.9 µM, Cc1noc(C)c1C(=O)NC1CCCc2ccccc21 (stereo not drawn) > 76.9 µM, O=C(Cn1[nH]c(=O)c2ccccc2c1=O)NCc1cccnc1 > 76.9 µM, CCOC(=O)CSc1nnc(-c2cccnc2)n1Cc1ccccc1 > 76.9 µM, O=C(CCSc1nnc2scc(-c3ccccc3)n12)Nc1nc(-c2ccccc2)ns1 > 76.9 µM, Cc1oc(-c2ccc3c(c2)OCCO3)cc1C(=O)NC(CCC(=O)O)C(=O)O (stereo not drawn) > 76.9 µM, CCOc1ccc(-c2nnc3ccc(SCC(=O)N4CCN(c5ccccc5)CC4)nn23)cc1 > 76.9 µM
